Reference: ChEMBL document CHEMBL1154674, “Synthesis and evaluation of three 18F-labeled aminophenylbenzothiazoles as amyloid imaging agents” (J Med Chem, 2009)
The source gives many values for each of these; only a part stands here. Each block holds one compound with its values, some of them ahead of it.

Experiments:
Type in all cases: ADME, organism-based, Macaca mulatta
[1] = Drug level in normal rhesus monkey cerebellum assessed as standard uptake value at 81.2 MBq, iv after 1.5 mins by microPET; conditions: in vivo, 0.025 h
[2] = Drug level in normal rhesus monkey parietal cortex assessed as standard uptake value at 81.2 MBq, iv after 85 mins by microPET; conditions: in vivo
[3] = Drug level in normal rhesus monkey thalamus assessed as standard uptake value at 81.2 MBq, iv after 6 mins by microPET; conditions: in vivo, 0.1 h
[4] = Drug level in normal rhesus monkey thalamus assessed as standard uptake value at 81.2 MBq, iv after 165 mins by microPET; conditions: in vivo, 2.75 h
[5] = Drug level in normal rhesus monkey thalamus assessed as standard uptake value at 81.2 MBq, iv after 175 mins by microPET; conditions: in vivo
[6] = Drug level in normal rhesus monkey white matter assessed as standard uptake value at 81.2 MBq, iv after 105 mins by microPET; conditions: in vivo, 1.75 h
[7] = Drug level in normal rhesus monkey white matter assessed as standard uptake value at 81.2 MBq, iv after 27.5 mins by microPET; conditions: in vivo
[8] = Drug level in normal rhesus monkey parietal cortex assessed as standard uptake value at 81.2 MBq, iv after 75 mins by microPET; conditions: in vivo, 1.25 h
[9] = Drug level in normal rhesus monkey parietal cortex assessed as standard uptake value at 81.2 MBq, iv after 115 mins by microPET; conditions: in vivo
[10] = Drug level in normal rhesus monkey frontal cortex assessed as standard uptake value at 81.2 MBq, iv after 4.5 mins by microPET; conditions: in vivo, 0.075 h
[11] = Drug level in normal rhesus monkey thalamus assessed as standard uptake value at 81.2 MBq, iv after 22.5 mins by microPET; conditions: in vivo, 0.375 h
[12] = Drug level in normal rhesus monkey white matter assessed as standard uptake value at 81.2 MBq, iv after 165 mins by microPET; conditions: in vivo, 2.75 h
[13] = Drug level in normal rhesus monkey white matter assessed as standard uptake value at 81.2 MBq, iv after 14 mins by microPET; conditions: in vivo
[14] = Drug level in normal rhesus monkey cerebellum assessed as standard uptake value at 81.2 MBq, iv after 3.5 mins by microPET; conditions: in vivo
[15] = Drug level in normal rhesus monkey frontal cortex assessed as standard uptake value at 81.2 MBq, iv after 8 mins by microPET; conditions: in vivo
[16] = Drug level in normal rhesus monkey frontal cortex assessed as standard uptake value at 81.2 MBq, iv after 37.5 mins by microPET; conditions: in vivo, 0.625 h
[17] = Drug level in normal rhesus monkey white matter assessed as standard uptake value at 81.2 MBq, iv after 65 mins by microPET; conditions: in vivo
[18] = Drug level in normal rhesus monkey thalamus assessed as standard uptake value at 81.2 MBq, iv after 32.5 mins by microPET; conditions: in vivo
[19] = Drug level in normal rhesus monkey parietal cortex assessed as standard uptake value at 81.2 MBq, iv after 17.5 mins by microPET; conditions: in vivo
[20] = Drug level in normal rhesus monkey cerebellum assessed as standard uptake value at 96.3 MBq, iv after 8 mins by microPET; conditions: in vivo
[21] = Drug level in normal rhesus monkey cerebellum assessed as standard uptake value at 96.3 MBq, iv after 42.5 mins by microPET; conditions: in vivo
[22] = Drug level in normal rhesus monkey cerebellum assessed as standard uptake value at 96.3 MBq, iv after 105 mins by microPET; conditions: in vivo, 1.75 h
[23] = Drug level in normal rhesus monkey cerebellum assessed as standard uptake value at 96.3 MBq, iv after 57.5 mins by microPET; conditions: in vivo
[24] = Drug level in normal rhesus monkey white matter assessed as standard uptake value at 96.3 MBq, iv after 17.5 mins by microPET; conditions: in vivo
[25] = Drug level in normal rhesus monkey parietal cortex assessed as standard uptake value at 96.3 MBq, iv after 57.5 mins by microPET; conditions: in vivo
[26] = Drug level in normal rhesus monkey pons assessed as standard uptake value at 96.3 MBq, iv after 0.5 mins by microPET; conditions: in vivo
[27] = Drug level in normal rhesus monkey parietal cortex assessed as standard uptake value at 96.3 MBq, iv after 75 mins by microPET; conditions: in vivo, 1.25 h
[28] = Drug level in normal rhesus monkey pons assessed as standard uptake value at 96.3 MBq, iv after 145 mins by microPET; conditions: in vivo
[29] = Drug level in normal rhesus monkey thalamus assessed as standard uptake value at 96.3 MBq, iv after 85 mins by microPET; conditions: in vivo
[30] = Drug level in normal rhesus monkey parietal cortex assessed as standard uptake value at 96.3 MBq, iv after 65 mins by microPET; conditions: in vivo
[31] = Drug level in normal rhesus monkey parietal cortex assessed as standard uptake value at 96.3 MBq, iv after 135 mins by microPET; conditions: in vivo, 2.25 h
[32] = Drug level in normal rhesus monkey cerebellum assessed as standard uptake value at 109.4 MBq, iv after 123 mins by microPET; conditions: in vivo, 2.05 h
[33] = Drug level in normal rhesus monkey frontal cortex assessed as standard uptake value at 109.4 MBq, iv after 42.5 mins by microPET; conditions: in vivo
[34] = Drug level in normal rhesus monkey white matter assessed as standard uptake value at 109.4 MBq, iv after 129 mins by microPET; conditions: in vivo, 2.15 h
[35] = Drug level in normal rhesus monkey frontal cortex assessed as standard uptake value at 109.4 MBq, iv after 12.5 mins by microPET; conditions: in vivo
[36] = Drug level in normal rhesus monkey thalamus assessed as standard uptake value at 109.4 MBq, iv after 1.5 mins by microPET; conditions: in vivo, 0.025 h
[37] = Drug level in normal rhesus monkey cerebellum assessed as standard uptake value at 109.4 MBq, iv after 117 mins by microPET; conditions: in vivo, 1.95 h
[38] = Drug level in normal rhesus monkey pons assessed as standard uptake value at 109.4 MBq, iv after 129 mins by microPET; conditions: in vivo, 2.15 h
[39] = Drug level in normal rhesus monkey cerebellum assessed as standard uptake value at 109.4 MBq, iv after 63 mins by microPET; conditions: in vivo, 1.05 h
[40] = Drug level in normal rhesus monkey cerebellum assessed as standard uptake value at 109.4 MBq, iv after 37.5 mins by microPET; conditions: in vivo, 0.625 h
[41] = Drug level in normal rhesus monkey frontal cortex assessed as standard uptake value at 109.4 MBq, iv after 105 mins by microPET; conditions: in vivo, 1.75 h
[42] = Drug level in normal rhesus monkey white matter assessed as standard uptake value at 109.4 MBq, iv after 69 mins by microPET; conditions: in vivo, 1.15 h
[43] = Drug level in normal rhesus monkey parietal cortex assessed as standard uptake value at 109.4 MBq, iv after 1.5 mins by microPET; conditions: in vivo, 0.025 h
[44] = Drug level in normal rhesus monkey white matter assessed as standard uptake value at 109.4 MBq, iv after 105 mins by microPET; conditions: in vivo, 1.75 h

SUV [1]: 1.669 | SUV [2]: 2.948 | SUV [3]: 4.921 | SUV [4]: 4.882 | SUV [5]: 4.58 | SUV [6]: 4.114 | SUV [7]: 3.489 | SUV [8]: 3.109 | SUV [9]: 2.684 | SUV [10]: 5.142 | SUV [11]: 5.149 | SUV [12]: 3.936 | SUV [13]: 3.424 | SUV [14]: 3.197 | SUV [15]: 5.469 | SUV [16]: 5.484 | SUV [17]: 3.927 | SUV [18]: 5.45 | SUV [19]: 4.712
SMILES: CNc1ccc2nc(-c3ccc([18F])cc3)sc2c1

SUV [20]: 1.64 | SUV [21]: 1.35 | SUV [22]: 0.91 | SUV [23]: 1.2 | SUV [24]: 1.25 | SUV [25]: 1.63 | SUV [26]: 0.54 | SUV [27]: 1.5 | SUV [28]: 1.8 | SUV [29]: 2.23 | SUV [30]: 1.57 | SUV [31]: 1.27
SMILES: CN(C)c1ccc2nc(-c3ccc([18F])cc3)sc2c1

SUV [32]: 2.29 | SUV [33]: 4.93 | SUV [34]: 3.85 | SUV [35]: 5.29 | SUV [36]: 3.7 | SUV [37]: 2.44 | SUV [38]: 4.86 | SUV [39]: 2.99 | SUV [40]: 3.77 | SUV [41]: 4.16 | SUV [42]: 3.64 | SUV [43]: 3.41 | SUV [44]: 3.75
SMILES: Nc1ccc2nc(-c3ccc([18F])cc3)sc2c1
